The record followed here is publication PMC6919601, “Identification of Plasmodium dipeptidyl aminopeptidase allosteric inhibitors by high throughput screening” (PLoS ONE, 2019).

The whole screen tested about 110,000 compounds, of which about 230 (0.21%) showed an effect of 50% or more. The list shows a part of the results.
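Also: 30 min substrate incubation versus DMSO and 10 µM JCP410 controls.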

The experiment deals with DPAP1 (Plasmodium falciparum, UniProt Q8IIJ9). The experiment can be described thus: primary screen, percent inhibition; read by cleavage of a fluorogenic dipeptide substrate; higher = more effect of the substance. Also on record: species or system P. falciparum D10 trophozoite lysates; single well.
Sequence of DPAP1 (Q8IIJ9 whole entry, looked up): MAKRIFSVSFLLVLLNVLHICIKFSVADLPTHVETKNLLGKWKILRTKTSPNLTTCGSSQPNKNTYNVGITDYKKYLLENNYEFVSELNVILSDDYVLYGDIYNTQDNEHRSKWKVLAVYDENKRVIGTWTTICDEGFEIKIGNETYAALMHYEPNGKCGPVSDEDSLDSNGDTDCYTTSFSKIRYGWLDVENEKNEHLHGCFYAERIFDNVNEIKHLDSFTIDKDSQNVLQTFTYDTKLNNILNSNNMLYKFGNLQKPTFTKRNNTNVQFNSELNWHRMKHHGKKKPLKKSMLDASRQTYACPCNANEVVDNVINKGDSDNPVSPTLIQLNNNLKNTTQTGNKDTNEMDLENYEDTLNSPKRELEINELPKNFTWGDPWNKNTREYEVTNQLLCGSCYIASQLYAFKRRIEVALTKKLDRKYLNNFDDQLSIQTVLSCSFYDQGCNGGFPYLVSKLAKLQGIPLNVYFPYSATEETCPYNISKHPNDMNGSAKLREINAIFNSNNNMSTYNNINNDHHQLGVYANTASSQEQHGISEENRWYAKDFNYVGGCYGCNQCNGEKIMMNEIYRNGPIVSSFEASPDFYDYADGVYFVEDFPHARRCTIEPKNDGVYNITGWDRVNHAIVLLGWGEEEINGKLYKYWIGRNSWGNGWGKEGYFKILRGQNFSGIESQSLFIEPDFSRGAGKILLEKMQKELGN
In the case of `O=C(Cn1cccc1C(=O)c1ccccc1)NCc1cccs1`, the “% Inhibition @ 10 uM” value is recorded as -2.25%.

On to `NS(=O)(=O)c1cccc(Nc2nc3ccccc3nc2NS(=O)(=O)c2ccc(Br)cc2)c1`, for which the “% Inhibition @ 10 uM” value is on record as 5.42%.

For `O=[N+]([O-])c1ccc(NC(c2ccccc2)c2ccc3cccnc3c2O)cc1` (centres unmarked), the “% Inhibition @ 10 uM” value is -2.59%.

`Cc1cc(C)c(OCC(=O)N(Cc2ccc(C)o2)C2CCS(=O)(=O)C2)c(C)c1` (centres unmarked): the “% Inhibition @ 10 uM” value was -1.11%.

As to `O=C(Nc1ccc(Br)cc1F)C1CCN(S(=O)(=O)c2ccc(F)cc2)CC1`, the “% Inhibition @ 10 uM” value is recorded as 2.17%.

For the molecule `COc1ccccc1C1C2=C(O)CC(C)(C)CC2=NC2=C1C(=O)CC(C)(C)C2` (centres unmarked), the “% Inhibition @ 10 uM” value was -4.67%.

Regarding `COc1ccc(/C=C2N=C(/C=C/c3ccccc3)OC\2=O)c(OC)c1OC`, the “% Inhibition @ 10 uM” value came to 0.775%.

In the case of `O=C(c1ccc(CS(=O)c2cccc(Cl)c2)o1)N1CCCCCC1` (centres unmarked), the “% Inhibition @ 10 uM” value was 5.15%.

With `COc1ccc(-c2nnnn2CCOCCn2nnnc2-c2ccc(OC)cc2)cc1`, the “% Inhibition @ 10 uM” value is recorded as -0.834%.

Consider `COc1cc(CN2CCN(Cc3ccc(Br)cc3)CC2)cc2c1OCO2`, for which the “% Inhibition @ 10 uM” value is -3.68%.

Consider `CC1=C(C(=O)Nc2cc(C)ccn2)C(c2cccc(Br)c2)C2=C(O)CC(C)(C)CC2=N1` (centres unmarked), for which the “% Inhibition @ 10 uM” value is listed as -2.07%.

As to `CCOC(=O)c1cc2ccccc2n1CC(=O)c1ccccc1`, the “% Inhibition @ 10 uM” value is 1.63%.

Regarding `COc1cc(C2C(C(=O)/C=C/c3ccccc3)=C(O)C(=O)N2CCCCCC(=O)O)ccc1O` (centres unmarked), the “% Inhibition @ 10 uM” value was -7.58%.

Turning to `N#Cc1c2n(c3c(=O)n(CC(=O)c4ccccc4)cnc13)CCCC2`, the “% Inhibition @ 10 uM” value is listed as 1.82%.

Regarding `c1ccc(Oc2cc(-n3cncn3)nc(-c3ccccc3)n2)cc1`, the “% Inhibition @ 10 uM” value is reported as 4.03%.

Take `N#CC1=C(SCC(=O)Nc2ccccc2)NC(=O)C(C#N)C12CCCC2` (centres unmarked): the “% Inhibition @ 10 uM” value was -4.26%.

With `Cc1nc(O)nc(O)c1NS(=O)(=O)c1ccc2c(c1)n(C)c(=O)n2C`, the “% Inhibition @ 10 uM” value is reported as 0.161%.

`C=CCn1c(=N)c(S(=O)(=O)c2ccccc2)cc2c(=O)n3cccc(C)c3nc21`: the “% Inhibition @ 10 uM” value is 3.62%.

In the case of `O=C(O)CCCC(=O)NCCc1ccncc1`, the “% Inhibition @ 10 uM” value is on record as -2.9%.

Turning to `O=C(O)/C=C/c1cn(-c2ccccc2)nc1-c1ccccc1`, the “% Inhibition @ 10 uM” value was -0.178%.

For the molecule `COc1ccccc1C(=O)NC1(C(F)(F)F)C(=O)Nc2c1c(=O)n(C)c(=O)n2C` (centres unmarked), the “% Inhibition @ 10 uM” value is -5.27%.

`CCOC(=O)NC1c2ccccc2CSc2ccccc21` (centres unmarked): the “% Inhibition @ 10 uM” value stood at 0.583%.

As for `Cc1c2cnn(CC(=O)NCCCSC3CCCCC3)c(=O)c2c(C)n1Cc1ccccc1`, the “% Inhibition @ 10 uM” value is 1.22%.

As for `NCCN1C(=O)S/C(=C/c2ccc(F)c(Oc3ccccc3)c2)C1=O`, the “% Inhibition @ 10 uM” value came out at 1.03%.

For the molecule `NC(=O)c1c(NC(=O)CN2CCCCC2)sc2c1CCCC2`, the “% Inhibition @ 10 uM” value is -2.62%.

Turning to `CC(O)c1cccc(NC(=O)c2cnn3c2NC(c2ccccc2)CC3C(F)(F)F)c1` (centres unmarked), the “% Inhibition @ 10 uM” value is recorded as -2.87%.

As to `CCO/C(O)=C1/C(C)=Nc2nc3ccccc3n2C1/C=C/c1ccccc1` (centres unmarked), the “% Inhibition @ 10 uM” value is on record as -5.2%.

Turning to `COC(=O)c1cc(-c2cccnc2)nc2ccccc12`, the “% Inhibition @ 10 uM” value worked out at 4.42%.

As to `COc1ccc(OC)c(/C=C(/C#N)C(=O)Nc2ccc(Cl)cc2)c1`, the “% Inhibition @ 10 uM” value is -0.0494%.

Consider `COc1ccc(CNC(=O)CCCNS(=O)(=O)c2cccc3nonc23)cc1`, for which the “% Inhibition @ 10 uM” value is on record as 0.457%.

In the case of `CNC(=O)C1CC(=O)N(CCc2ccccc2)/C(=N/c2ccc(OC)cc2)S1` (centres unmarked), the “% Inhibition @ 10 uM” value is on record as -7.63%.

Take `CCOc1ccc(CCNC(=O)CS(=O)Cc2nc(-c3ccccc3F)oc2C)cc1OCC` (centres unmarked): the “% Inhibition @ 10 uM” value is on record as -1.05%.

In the case of `N#CCNC(=O)[C@H](CC1CCCCC1)NC(=O)c1cnc2ccccc2c1`, the “% Inhibition @ 10 uM” value came to 2.86%.

In the case of `CCCCOCC(O)Cn1cnc2ccccc21` (centres unmarked), the “% Inhibition @ 10 uM” value is recorded as -5%.

With `Cc1cc(C)n(-c2cc(-c3ccccc3)nc(C)n2)n1`, the “% Inhibition @ 10 uM” value worked out at 6.09%.

Consider `CCOC(=O)N1CCC(Nc2nc3ccccc3n3c(CC)nnc23)CC1`, for which the “% Inhibition @ 10 uM” value is reported as -8.08%.

Take `COc1cc(CN2CCN(Cc3ccccc3)CC2)cc2c1OCO2`: the “% Inhibition @ 10 uM” value was -3.41%.

For the molecule `O=C(CN(C1CCCCC1)S(=O)(=O)c1ccccc1)N1CCCCCC1`, the “% Inhibition @ 10 uM” value stood at 1.39%.

As to `CC(=O)Nn1cc2c(=O)n(C)c(=O)n(C)c2c1`, the “% Inhibition @ 10 uM” value is on record as -3.75%.

In the case of `CCc1nnc(/N=C/c2c(C)nn(-c3ccc(F)cc3)c2O)s1`, the “% Inhibition @ 10 uM” value is -2.39%.

As for `Cc1ccc(CNS(=O)(=O)Cc2ccccc2)cc1`, the “% Inhibition @ 10 uM” value is reported as -1.5%.

Regarding `CCN(CC)S(=O)(=O)c1ccc2c(c1)Cc1cc(S(=O)(=O)N(CC)CC)ccc1-2`, the “% Inhibition @ 10 uM” value was found to be 3.09%.

As for `O=S1(=O)N=C(Nc2ccc(Cl)cc2)c2ccccc21`, the “% Inhibition @ 10 uM” value came to 1.67%.

Consider `C=CCN1CCN(c2ccncc2S(=O)(=O)NC(C)C)CC1`, for which the “% Inhibition @ 10 uM” value is -10.2%.

For the molecule `O=C(COc1ccc(Cl)cc1Cl)Nc1cccc2c(NC(=O)COc3ccc(Cl)cc3Cl)cccc12`, the “% Inhibition @ 10 uM” value is given as -4.96%.

In the case of `CC1=CC(C)C2(CO)COC(c3ccc(O)cc3)C1C2C` (centres unmarked), the “% Inhibition @ 10 uM” value was -1.85%.

In the case of `CCCCN(C)C(=O)C1CCCN(c2nnc(C)c3c(C)n(-c4ccc(Cl)cc4)nc23)C1` (centres unmarked), the “% Inhibition @ 10 uM” value is 7.09%.

For the molecule `COc1ccc(-n2c(/C=C/c3ccc(O)cc3)nc3ccccc3c2=O)cc1`, the “% Inhibition @ 10 uM” value was 8.36%.

Take `Cc1ccc(S(=O)(=O)NCc2ccc(C(=O)NCCCOC(C)C)cc2)cc1`: the “% Inhibition @ 10 uM” value is listed as -1.54%.

Take `Cc1ccc(CCN2CC(C(=O)NCCN3CCCCCC3)CC2=O)cc1` (centres unmarked): the “% Inhibition @ 10 uM” value turned out to be 4.81%.
